# In all, about 220,000 compounds went through this assay and about 2,300 (1%) were called active. The shares of active, inactive and inconclusive entries below differ from those in the screen. Calls follow the shape of the dose curve; as a rule, active = well fitted inhibition curve with a large enough effect; inconclusive = small, poorly fitted or top-dose-only effect, or effect the other way; inactive = no such curve, though single readings can be large or run the other way. Potencies of inconclusive entries are left out as doubtful fits.
# Target: Neuropeptide S receptor (Homo sapiens) (UniProt Q6W5P4)
# Assay: qHTS Assay for Antagonists of the Neuropeptide S Receptor: cAMP Signal Transduction; also: nearly all actives have a fitted effect of over 50% in size
# Conditions: CHO-NPSR cells, cAMP TR-FRET, antagonist mode; activity change, negative = inhibition: at 38.3 µM (top of the series) unless noted
# % is scaled to controls: 0 for no effect and ±100 for the full control effect; potency is read from the fitted curve at half-maximal effect; tags tell the direction and shape of the fitted curve.
# Sequence of UniProt Q6W5P4 (Q6W5P4 whole entry, looked up): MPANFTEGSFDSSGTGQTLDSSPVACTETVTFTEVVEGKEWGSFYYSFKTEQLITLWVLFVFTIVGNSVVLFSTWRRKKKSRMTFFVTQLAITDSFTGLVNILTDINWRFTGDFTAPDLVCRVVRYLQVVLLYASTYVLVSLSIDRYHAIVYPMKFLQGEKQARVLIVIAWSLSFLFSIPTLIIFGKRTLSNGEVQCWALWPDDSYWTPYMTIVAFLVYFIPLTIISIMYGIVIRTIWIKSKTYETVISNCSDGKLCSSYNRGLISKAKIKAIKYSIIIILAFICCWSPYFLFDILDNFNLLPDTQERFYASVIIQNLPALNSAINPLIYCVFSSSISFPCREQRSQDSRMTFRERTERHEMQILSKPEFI
SMILES,Potency,"activity change, negative = inhibition"
COc1cccc(Cc2n[nH]c(=S)n2Cc2ccco2)c1,"inconclusive [inhibitor, single point]",
Cc1cc2ncn(-c3ncnc4scc(-c5ccccc5)c34)c2cc1C,"inconclusive [inhibitor, partial curve]",
Cc1ccc(N(CC(=O)Nc2ccc(F)c(Cl)c2)S(=O)(=O)c2c(C)noc2C)cc1,"inconclusive [inhibitor, single point]",
COc1ccc(/C(N)=N/OC(=O)Cc2cccs2)cc1OC,,inactive: 18.2%
Cc1nn(CC(O)CN2c3ccccc3Sc3ccccc32)c(C)c1Br (stereo not drawn),active: 6.31 µM,
O=C(CN(Cc1ccco1)C(=O)c1cccc(Cl)c1)Nc1c(Cl)cc(Cl)cc1Cl,"inconclusive [inhibitor, single point]",
CCOC(=O)c1ccc(NC(=O)CSc2nc(NC(=O)c3ccccc3)c3c(C)c(C)oc3n2)cc1,"inconclusive [inhibitor, partial curve]",
COc1ccc(-c2nn(C)c(=O)c3ccccc23)cc1CNC(=O)C1CCCCC1,"inconclusive [inhibitor, single point]",
COc1ccc(N=C2SC(CC(=O)Nc3ccccc3)C(=O)N2CC2CCCO2)cc1 (stereo not drawn),"inconclusive [inhibitor, partial curve]",
CCOC(=O)C(=Cc1ccc(Br)cc1)C(=O)OCC,"inconclusive [activator, single point]",
Cc1ccc(OCC(=O)Nc2ccccc2Sc2ccc(Cl)cc2)c([N+](=O)[O-])n1,"inconclusive [inhibitor, single point]",
CCOC(=O)C1=C(C)NC(SCC(=O)OC)=C(C#N)C1c1ccc(C(=O)OC)cc1 (stereo not drawn),"inconclusive [inhibitor, full curve]",
Cc1oc2c(cc(NS(=O)(=O)c3cccs3)c3ccccc32)c1C(=O)OC(C)C,"inconclusive [inhibitor, single point]",
Cc1c(Cc2ccccc2)c(=O)oc2c(O)c(O)ccc12,,inactive: -11.1%
Cc1cccc(C)c1-n1c(C)cc(/C=N\Nc2ccc([N+](=O)[O-])cn2)c1C,,inactive: -18.1% [at 46.1 µM]
COc1ccc(OC)c2[nH]c(=O)c(CCNS(=O)(=O)c3ccc(C)cc3)cc12,,inactive: -13.2% [at 46.1 µM]
COc1ccc(N2CCN(c3ccc(NC(=O)c4ccc5c(c4)OCO5)cc3C#N)CC2)cc1,active: 5.01 µM,
COc1cc(NC(=O)C2CCN(S(=O)(=O)c3ccc(Cl)cc3)CC2)ccc1-n1cnnn1,"inconclusive [inhibitor, single point]",
O=[N+]([O-])c1c(NCCCO)cc(Sc2nc3ccccc3s2)c2nonc12,"inconclusive [inhibitor, single point]",
CCOC(=O)C1(Cc2cccc(OC)c2)CCN(C/C=C/c2ccccc2)CC1,"inconclusive [activator, single point]",
CCc1c(-c2ccccc2)nc2sc3c(c2c1N)CCCC3,"inconclusive [inhibitor, single point]",
CC(C)Cn1c2ccccc2c2cc(C(=O)O)ccc21,,inactive: 6.01% [at 46.1 µM]
O=C(c1ccco1)n1nc(NCc2ccccc2)nc1NCc1ccccc1,"inconclusive [inhibitor, single point]",

SMILES,Potency,"activity change, negative = inhibition"
COc1ccc(N(CC(=O)Nc2cc(Cl)ccc2OC)S(=O)(=O)c2c(C)noc2C)cc1,"inconclusive [inhibitor, full curve, poor fit]",
CC(C)(C)c1ccc(NC(=O)N2CCCN(c3c(Cl)cncc3Cl)CC2)cc1,"inconclusive [activator, partial curve]",
O=C(NCc1ccccc1)C1=C[C@@H](C2CCCCC2)C[C@@H](OCc2ccc(CO)cc2)O1,"inconclusive [activator, single point]",
N=C(N)SCCc1ccc(CCSC(=N)N)cc1,"inconclusive [inhibitor, full curve]",
CCOC(=O)c1c(NC(=O)CSc2nnc(-c3ccco3)o2)sc(C)c1C,"inconclusive [inhibitor, single point]",
Cc1ccc2[nH]c3c(c2c1)CN(C(=O)CN1c2ccc(F)cc2CCC1C)CC3 (stereo not drawn),"inconclusive [inhibitor, single point]",
Cc1ccc(-n2c(=O)c3c4c(sc3n3c(=S)[nH]nc23)CCC4)cc1,,inactive: 27.5%
O=C1C(Nc2cccc(O)c2)=C(N2CCCCC2)C(=O)c2ccccc21,"inconclusive [inhibitor, single point]",
Cn1cc(C=C2C(=O)OC3(CCCCC3)OC2=O)c2ccccc21,,inactive: -14.9%
COc1ccccc1-n1c(SCC(=O)O)nnc1-c1ccc(S(=O)(=O)N2CCCCC2)cc1,,inactive: -6.29% [at 46.1 µM]
CCOC(=O)C1=C(C)OC(N)=C(C#N)C1C1CCCCC1 (stereo not drawn),"inconclusive [inhibitor, full curve, poor fit]",
CC(=O)N(C1=C(Cl)C(=O)c2ccccc2C1=O)C1CCCCC1,active: 6.31 µM,
COCCn1cnc2c(c1=O)c1nc3ccccc3nc1n2/N=C/c1cccc(OC)c1,"inconclusive [inhibitor, single point]",
Cc1cc(C)c(Nc2cc(S(=O)(=O)O)c(N)c3c2C(=O)c2ccccc2C3=O)c(C)c1,active: 5.01 µM,
Cc1nc(Nc2ccc(F)cc2)[nH]c(=O)c1CCC(C)C,"inconclusive [inhibitor, partial curve]",
COc1ccc(N2CCN(c3oc(COc4ccc(Cl)cc4)nc3C#N)CC2)cc1,"inconclusive [inhibitor, partial curve]",
CCCNC(=O)CSc1nc(COc2ccccc2)nc2ccccc12,"inconclusive [activator, partial curve]",
CCCCNC(=S)NNC(=O)CCn1nc(C)c(Br)c1C,"inconclusive [inhibitor, single point]",
O=C(NC(=S)Nc1nc2ccccc2s1)c1ccco1,"inconclusive [inhibitor, single point]",
CCCCC(=O)Nc1sc(C(=O)N(CC)CC)c(C)c1C(=O)OC,"inconclusive [inhibitor, single point]",
CCn1c(CNC(=O)COc2ccc(C(C)C)cc2)nnc1SCC(=O)Nc1ccc(F)cc1,"inconclusive [inhibitor, single point]",
COc1ccc(-c2cc(-c3ccccc3)nc(SCC(=O)Nc3nccs3)c2C#N)cc1,"inconclusive [activator, single point]",
COc1ccc(C2C(C#N)=C3NC(=O)c4c(sc5c4CCCCC5)N3C3=C2C(=O)CC(C)(C)C3)cc1 (stereo not drawn),"inconclusive [inhibitor, partial curve]",

SMILES,Potency,"activity change, negative = inhibition"
Cc1cccc(N2C(S)=C(C#N)C(=O)NC2c2ccco2)c1 (stereo not drawn),,inactive: 43.1%
COC(=O)CN(CCc1ccccc1)S(=O)(=O)c1ccc(OC)c(OC)c1,,inactive: -6.32% [at 46.1 µM]
CCN(CC)CCNC(=O)c1cn(-c2ccccc2)nc1-c1cccs1,,inactive: 3.23% [at 46.1 µM]
O=C(CSc1nc2ccccc2c(=O)n1Cc1ccco1)N1CCCCCC1,"inconclusive [inhibitor, full curve, poor fit]",
O=c1nc(-c2ccccc2)c2cc(Cl)ccc2[nH]1,"inconclusive [activator, partial curve]",
COc1ccc(N=Cc2ccc[nH]2)cc1,,inactive: -3.92% [at 46.1 µM]
CSc1ccccc1-c1nnc(-c2ccc(C)cc2)o1,"inconclusive [inhibitor, partial curve]",
Cc1ccccc1N=C1NC(=O)/C(=C/c2cccn2C)S1,"inconclusive [inhibitor, single point]",
Cc1ccc(N(C(=O)Cn2nnc(-c3ccc(F)cc3)n2)C(CC(C)C)C(=O)NCC2CCCO2)cc1 (stereo not drawn),"inconclusive [inhibitor, single point]",
Cc1cc(N2C(=O)C(O)=C(C(=O)c3cccs3)C2c2ccc(F)cc2)no1 (stereo not drawn),"inconclusive [activator, single point]",
CCOC(=O)N1CCN(C2CC(=O)N(c3ccccc3)C2=O)CC1 (stereo not drawn),,inactive: -2.88% [at 46.1 µM]
CCc1nnc(NS(=O)(=O)c2ccc(NC(=S)NC(=O)/C=C/c3ccc([N+](=O)[O-])cc3)cc2)s1,,inactive: 7.89%
COc1ccc(-n2c(C)cc(C(=O)CN3C(=O)c4ccccc4C3=O)c2C)cc1,"inconclusive [inhibitor, partial curve]",
CCOC(=O)c1ccccc1NCN1C(=O)CSC1=O,,inactive: -11% [at 46.1 µM]
Nc1c(C(=O)NC2CCCCC2)nsc1C(=O)OCC(=O)NC1CCCCC1,"inconclusive [inhibitor, single point]",
CC(=O)Nc1ccc(N=Nc2c(C)[nH]n(C(N)=S)c2=O)cc1,,inactive: -41.5%
O=C(CCNS(=O)(=O)c1cccc2nsnc12)Nc1ccc2c(c1)OCCO2,,inactive: -5.17% [at 46.1 µM]
CCc1ccc(N(C(=O)c2csnn2)C(C(=O)NC(C)(C)CC)c2cccnc2)cc1 (stereo not drawn),,inactive: -13.7%
CC(C)NC(=O)NC(=O)COC(=O)c1ccc(OC(F)(F)F)cc1,,inactive: 13%
COc1ccc(NC(=O)c2cc(-c3cccnc3)nc3c(C)c(C)ccc23)c(OC)c1,"inconclusive [inhibitor, partial curve]",
Cc1cc(Cl)c(S(=O)(=O)N2CCN(c3cccc(C)c3C)CC2)cc1OCC(N)=O,"inconclusive [inhibitor, single point]",
O=C(Nc1nc(-c2ccccc2)cs1)C1c2ccccc2Oc2ccccc21,"inconclusive [inhibitor, partial curve]",
